Results from PMC4336329 (PLoS ONE, 2015).
About 14,000 (4.5%) of roughly 310,000 compounds showed an effect of 50% or more. The effect is printed as a negative number. The list shows a part of the results.

Each compound was assayed against human ether-à-go-go-related gene (hERG) potassium channel (human, UniProt Q12809) (assay: primary screen, population patch clamp on CHO cells stably expressing hERG).
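Note: peak tail current of the secondary pulse compared with the same well before compound.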

human ether-à-go-go-related gene (hERG) potassium channel, sequence (Q12809 whole entry, looked up): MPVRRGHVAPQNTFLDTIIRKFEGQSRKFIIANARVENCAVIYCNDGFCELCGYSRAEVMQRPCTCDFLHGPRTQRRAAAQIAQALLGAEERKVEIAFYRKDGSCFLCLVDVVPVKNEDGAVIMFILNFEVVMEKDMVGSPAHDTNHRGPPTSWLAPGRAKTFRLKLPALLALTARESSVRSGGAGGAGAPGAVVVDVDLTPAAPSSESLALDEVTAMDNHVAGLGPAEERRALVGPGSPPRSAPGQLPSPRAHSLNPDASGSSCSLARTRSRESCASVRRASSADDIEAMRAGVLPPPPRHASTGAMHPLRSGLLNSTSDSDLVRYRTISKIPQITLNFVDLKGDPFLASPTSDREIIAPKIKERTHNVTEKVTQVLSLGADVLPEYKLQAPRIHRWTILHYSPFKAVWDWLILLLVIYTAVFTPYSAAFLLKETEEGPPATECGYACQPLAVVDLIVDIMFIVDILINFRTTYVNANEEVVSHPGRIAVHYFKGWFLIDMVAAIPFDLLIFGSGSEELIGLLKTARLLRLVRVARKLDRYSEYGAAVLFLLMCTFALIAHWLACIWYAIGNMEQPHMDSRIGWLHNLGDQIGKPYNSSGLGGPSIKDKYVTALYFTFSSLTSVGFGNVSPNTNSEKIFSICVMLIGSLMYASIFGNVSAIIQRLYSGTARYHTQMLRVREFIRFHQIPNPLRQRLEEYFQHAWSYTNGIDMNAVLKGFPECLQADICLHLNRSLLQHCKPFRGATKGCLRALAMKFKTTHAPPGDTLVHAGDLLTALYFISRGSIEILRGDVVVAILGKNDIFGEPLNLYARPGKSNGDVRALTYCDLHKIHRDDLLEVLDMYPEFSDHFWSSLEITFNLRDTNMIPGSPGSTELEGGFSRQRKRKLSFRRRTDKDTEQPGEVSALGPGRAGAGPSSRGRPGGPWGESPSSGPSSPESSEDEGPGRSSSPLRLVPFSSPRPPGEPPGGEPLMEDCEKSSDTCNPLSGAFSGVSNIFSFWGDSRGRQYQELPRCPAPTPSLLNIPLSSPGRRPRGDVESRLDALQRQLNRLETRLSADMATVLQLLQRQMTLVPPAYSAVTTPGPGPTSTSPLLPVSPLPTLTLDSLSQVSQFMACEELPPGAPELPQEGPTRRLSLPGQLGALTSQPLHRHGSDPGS

Row | SMILES | hERG current change (%, negative = inhibition) at 10uM
1 | COc1ccc(CCC(=O)N2C[C@H]3C[C@@H](C2)c2cccc(=O)n2C3)cc1 | -9.05%
2 | CCC/C(C)=N/NC(=O)c1ccccc1O | -7.28%
3 | Cc1ccc(NC(=O)COC(=O)c2ccc(F)cc2Cl)c(Br)c1 | 14.1%
4 | COc1cccc(CNc2ccc(F)c([N+](=O)[O-])c2)c1O | -22.5%
5 | CCOC(=O)c1ccccc1-c1cn2cc(Cl)ccc2n1 | -24.1%
6 | CCOC(=O)C1=C(C)OC(N)=C(C#N)C1c1cc(OC)c2c(c1)OCO2 (stereo not shown) | -20.6%
7 | COc1cccc(C(=O)NCc2ccc3[nH]c(C)cc3c2)c1 | 18.7%
8 | CCOC(=O)c1sc(NC(=O)CSc2nnnn2-c2ccc(C)c(C)c2)nc1C | 1.7%
9 | COc1cccc(NC(=O)Cn2cnc3sc(C)c(S(=O)(=O)N4CCN(C)CC4)c3c2=O)c1 | 9.98%
10 | Nc1nonc1-n1nnc(C(=O)N/N=C/c2ccc(Cl)cc2Cl)c1CN1CCOCC1 | 17.4%
11 | O=C(NNC(=O)c1cccc(-n2cccc2)c1)c1ccccc1 | -1.74%
12 | O=c1[nH]c2ccccc2n1CCCN1CCC(n2c(=O)[nH]c3cc(Cl)ccc32)CC1 | -65.5%
13 | Cc1cccc2[nH]c(CN(C)C(=O)C3CCC(=O)N(CCc4ccccc4)C3)nc12 (stereo not shown) | -13.7%
14 | CC(=O)c1ccc(NC(=O)Cn2nc(C)cc2C)cc1 | 5.09%
15 | C=CCn1c(SCC(=O)Nc2ccc(F)cc2)nc2ccccc2c1=O | -3.18%
16 | Cc1cc(=O)n(C)c(=O)n1CCCCOc1ccc([N+](=O)[O-])cc1 | -68.9%
17 | COc1cc(C(=O)Nc2cccnc2)cc(OC)c1OC | 16.3%
18 | Cc1ccn2c(=O)c(NC(=O)COc3ccccc3)c(C)nc2c1 | -56.9%
19 | CCOc1c(Br)cc(C2CC(=O)Nc3cc(OC)c(OC)cc32)cc1OC (stereo not shown) | 8.25%
20 | C=CCNC(=O)/C(=C/c1cccc([N+](=O)[O-])c1)NC(=O)c1ccco1 | -27.5%
21 | CN(Cc1ccco1)C(=O)c1ccc(S(=O)(=O)N2CCCCCC2)cc1 | -32.5%
22 | COC(=O)C1=C(C)NC(C)=C(C(=O)OC)C1C(=O)OCC(=O)Nc1ccc(C(C)=O)cc1 | 13.6%

Row | SMILES | hERG current change (%, negative = inhibition) at 10uM
23 | COc1cccc(-c2cc(C(=O)N3N=C(C)CC3(O)C(F)F)c3ccccc3n2)c1 (stereo not shown) | 0.295%
24 | CCCS(=O)(=O)N1CCN(C(=O)COc2ccc(-c3ccccc3)cc2)CC1 | -27.1%
25 | O=C(/C(Cl)=C/Nc1ccc(Br)cn1)C(F)(F)F | 12.7%
26 | O=C1c2ccccc2S(=O)(=O)c2cc(C(=O)N3CCC(O)CC3)ccc21 | 6.7%
27 | Cc1cc(C(=O)CN2CCCC2)c(C)n1-c1ccc(F)cc1 | 1.77%
28 | Cc1ccc(C23OCCN2CCn2nc4ccccc4c23)cc1 (stereo not shown) | -12.1%
29 | COc1ccc(NS(=O)(=O)c2ccc(Br)cc2)cn1 | -0.528%
30 | CCCCCCCCCS(=O)(=O)N/N=C/c1cccc([N+](=O)[O-])c1 | 13.9%
31 | CC1=C(C(=O)OCC2CCCCC2)C(c2ccccc2F)NC(=O)N1 (stereo not shown) | -0.253%
32 | O=C1C=C(c2ccc3c(c2)OCO3)C[C@@H](c2ccc(Cl)cc2)C1 | 5.86%
33 | CCC(SC1=N/C(=C/c2ccccc2OC)C(=O)N1c1ccccc1)C(=O)Nc1cc(C)on1 (stereo not shown) | -3.34%
34 | O=C(N/N=C/C=C/c1ccccc1[N+](=O)[O-])c1cccs1 | -17.8%
35 | Cc1cc(C)c(OCCCNCc2ccccc2)c(Br)c1.O=C(O)C(=O)O | -10.7%
36 | COc1ccc(NC(=O)c2nc[nH]c2C(=O)N[C@H](C)c2ccccc2)cc1 | -3.73%
37 | CCNc1nc(NCC)n2c(SCC(=O)Nc3cc(Cl)ccc3OC)nnc2n1 | -8.33%
38 | CN1CCN(/N=C/c2c3ccccc3c(Cl)c3ccccc23)CC1.Cl | 3.81%
39 | NC(=O)Nc1ccccc1C(=O)N1CCC(O)(c2ccc(Cl)cc2)CC1 | -0.977%
40 | Cc1onc(-c2ccccc2)c1C(=O)N1CCCC1 | 18.9%
41 | COc1cccc(C2/C(=C(/O)c3ccccc3)C(=O)C(=O)N2Cc2ccco2)c1 (stereo not shown) | 16.4%
42 | Fc1nc(F)c(F)c(NCCCNc2c(F)c(F)nc(F)c2F)c1F | -6.81%
43 | Cc1ccc(-n2c(O)cnc2Nc2nc(C)cc(C)n2)cc1 | -8.21%
